26 compounds from the antibiotic and cytotoxicity screens of Wong et al. (2023) can be followed below.

The list shows a part of the results.

One assay concerns HSkMC. The assay is described as follows: cytotoxicity call (relative viability < 0.9). The note with it: 10 µM.
The test system of a further assay is HepG2. The assay can be described thus: cytotoxicity call (relative viability < 0.9). The following applies: 10 µM.
In the next assay the test system is S. aureus RN4220. The assay is described as follows: growth inhibition call (relative growth <= 0.2). The note with it: 50 µM.

Consider `C[C@@H]1CN([C@H](C)CO)C(=O)Cc2cc(NC(=O)Cn3cnnn3)ccc2O[C@H]1CN(C)S(=O)(=O)c1cccs1`, for which the cytotoxicity call in the assay with HSkMC and with HepG2 was “inactive” throughout. Further, in the assay on S. aureus RN4220, the growth inhibition call is “inactive”.

For the compound `O=C(C[C@@H]1C=C[C@@H](NC(=O)CN2CCOCC2)[C@@H](CO)O1)NCCc1ccccc1`, the cytotoxicity call in the assay with HSkMC and in the assay on HepG2 was “inactive” throughout. In addition, the growth inhibition call with S. aureus RN4220 is “inactive”.

`C[C@@H]1CN([C@@H](C)CO)C(=O)c2cc(NC(=O)CCCN(C)C)ccc2O[C@@H](C)CCCCO[C@@H]1CN(C)C`: the cytotoxicity call in the assay with HSkMC and in the assay on HepG2 was “inactive” in each case. The growth inhibition call with S. aureus RN4220 is “inactive”.

In the case of `C[C@@H]1CN([C@H](C)CO)C(=O)CCCn2nncc2CO[C@H]1CN(C)C(=O)Nc1ccc(C(C)(C)C)cc1`, the cytotoxicity call in the assay with HSkMC and in the assay with HepG2 was “inactive” throughout. Also, the growth inhibition call in the assay on S. aureus RN4220 is “inactive”.

As to `C[C@H]1CN([C@@H](C)CO)C(=O)c2cccc(NS(=O)(=O)c3cccs3)c2O[C@H]1CN(C)S(=O)(=O)c1ccccc1`, the cytotoxicity call in the assay on HSkMC and with HepG2 was “inactive” in each case. For the same compound, the growth inhibition call with S. aureus RN4220 is “inactive”.

Regarding `Nc1ccc2[nH]c(=S)sc2c1`, the cytotoxicity call in the assay with HSkMC and with HepG2 was “inactive” in each case. The growth inhibition call with S. aureus RN4220 was “inactive”.

Turning to `C[C@H]1CN([C@@H](C)CO)C(=O)c2cc(C#CCN(C)C)cnc2O[C@@H]1CN(C)Cc1ccc2c(c1)OCO2`, the cytotoxicity call with HSkMC and in the assay with HepG2 was “inactive” each time. For the same compound, in the assay with S. aureus RN4220, the growth inhibition call was “inactive”.

Consider `O=C(CCCCCCC(=O)Nc1ccccc1O)N/N=C/[C@H](O)[C@@H](O)[C@H](O)[C@H](O)CO[C@H]1O[C@H](CO)[C@H](O)[C@H](O)[C@H]1O`, for which the cytotoxicity call with HSkMC and in the assay on HepG2 was “inactive” throughout. Besides, in the assay on S. aureus RN4220, the growth inhibition call was “inactive”.

On to `C[C@@H]1CN([C@@H](C)CO)C(=O)c2cc(N(C)C)ccc2O[C@@H](C)CCCCO[C@@H]1CN(C)Cc1ccc(C(F)(F)F)cc1`, for which the cytotoxicity call in the assay on HSkMC and in the assay on HepG2 was “inactive” in each case. Also, the growth inhibition call in the assay with S. aureus RN4220 is “inactive”.

`CC(C)NC(=O)N[C@@H]1C=C[C@@H](CC(=O)O)O[C@H]1CO`: the cytotoxicity call with HSkMC and in the assay with HepG2 was “inactive” in each case. Also, the growth inhibition call in the assay with S. aureus RN4220 is “inactive”.

Regarding `C[C@H](CO)N1C[C@H](C)[C@H](CN(C)C(=O)C2CCCCC2)OCCCC[C@H](C)Oc2ccc(NC(=O)Nc3cccc4ccccc34)cc2C1=O`, the cytotoxicity call in the assay with HSkMC and in the assay with HepG2 was “inactive” in each case. The growth inhibition call in the assay with S. aureus RN4220 is “inactive”.

As to `Cc1noc(C)c1S(=O)(=O)N(C)C[C@H]1Oc2ccc(NS(=O)(=O)c3ccc(Cl)cc3)cc2C(=O)N([C@@H](C)CO)C[C@H]1C`, the cytotoxicity call in the assay on HSkMC and with HepG2 was “inactive” throughout. Also, the growth inhibition call with S. aureus RN4220 is “inactive”.

For `C[C@@H]1CCCCO[C@@H](CN(C)C(=O)CCCN(C)C)[C@H](C)CN([C@H](C)CO)C(=O)c2cc(NS(=O)(=O)c3cn(C)cn3)ccc2O1`, the cytotoxicity call in the assay on HSkMC and in the assay with HepG2 was “inactive” throughout. In the assay with S. aureus RN4220, the growth inhibition call was “inactive”.

As to `C[C@@H]1CCCCO[C@H](CN(C)C(=O)NC2CCCCC2)[C@H](C)CN([C@@H](C)CO)C(=O)c2cc(NC(=O)c3ccccc3)ccc2O1`, the cytotoxicity call with HSkMC and with HepG2 was “inactive” throughout. Besides, in the assay on S. aureus RN4220, the growth inhibition call was “inactive”.

In the case of `Cc1ccc(S(=O)(=O)Nc2ccc3c(c2)C(=O)N([C@@H](C)CO)C[C@H](C)[C@@H](CN(C)C(=O)Nc2ccccc2)OCCCC[C@H](C)O3)cc1`, the cytotoxicity call with HSkMC was “inactive”. Further, the cytotoxicity call with HepG2 was “active”. Besides, the growth inhibition call with S. aureus RN4220 is “inactive”.

For the compound `C[C@H]1CCCCO[C@H](CN(C)Cc2ccc(Cl)c(Cl)c2)[C@@H](C)CN([C@@H](C)CO)C(=O)c2cc(NC(=O)CCC(F)(F)F)ccc2O1`, the cytotoxicity call with HSkMC and in the assay with HepG2 was “inactive” in each case. In the assay with S. aureus RN4220, the growth inhibition call is “inactive”.

In the case of `C[C@@H]1CN([C@H](C)CO)C(=O)Cc2cc(NC(=O)Cc3cn(C)c4ccccc34)ccc2O[C@H]1CN(C)Cc1ccc(-c2ccccc2)cc1`, the cytotoxicity call in the assay with HSkMC and in the assay with HepG2 was “active” in each case. In the assay on S. aureus RN4220, the growth inhibition call was “inactive”.

With `CCCC(=O)Nc1ccc2c(c1)C(=O)N(C)C[C@H](OC)[C@@H](C)CN(S(=O)(=O)c1cn(C)cn1)[C@H](C)CO2`, the cytotoxicity call with HSkMC and in the assay with HepG2 was “inactive” each time. The growth inhibition call in the assay on S. aureus RN4220 is “inactive”.

Turning to `C[C@@H]1CN([C@H](C)CO)C(=O)c2cc(NS(=O)(=O)c3cn(C)cn3)ccc2O[C@@H](C)CCCCO[C@H]1CN(C)C`, the cytotoxicity call with HSkMC and in the assay with HepG2 was “inactive” throughout. The growth inhibition call in the assay with S. aureus RN4220 was “inactive”.

Consider `COCC(=O)N1CC[C@]2(CC1)CN(Cc1ccc3c(c1)OCO3)[C@H](CO)c1c2c2ccc(cc2n1C)OC`, for which the cytotoxicity call in the assay with HSkMC and in the assay with HepG2 was “inactive” each time. The growth inhibition call with S. aureus RN4220 was “inactive”.

On to `COc1ccccc1CNC(=O)C[C@H]1C[C@@H]2c3cc(NC(=O)Nc4ccc(C(F)(F)F)cc4)ccc3O[C@@H]2[C@@H](CO)O1`, for which the cytotoxicity call in the assay on HSkMC and with HepG2 was “inactive” throughout. Moreover, the growth inhibition call with S. aureus RN4220 was “inactive”.

As to `Cl.NCCc1ccc(O)c(O)c1`, the cytotoxicity call with HSkMC was “inactive”. Further, the cytotoxicity call with HepG2 was “active”. Also, the growth inhibition call in the assay on S. aureus RN4220 was “inactive”.

`Cc1noc(C)c1S(=O)(=O)Nc1ccc2c(c1)C(=O)N([C@H](C)CO)C[C@H](C)[C@H](CN(C)Cc1ccc(C(=O)O)cc1)O2`: the cytotoxicity call in the assay on HSkMC (human skeletal muscle cells) and in the assay with HepG2 was “inactive” in each case. The growth inhibition call in the assay on S. aureus RN4220 was “inactive”.

Consider `CO[C@@H]1CN(C)C(=O)c2ccc(NC(=O)C3CC3)cc2OC[C@@H](C)N(C(=O)Cc2ccccn2)C[C@@H]1C`, for which the cytotoxicity call in the assay with HSkMC and in the assay on HepG2 was “inactive” throughout. Also, the growth inhibition call in the assay with S. aureus RN4220 was “inactive”.

As to `O=C(C[C@@H]1CC[C@@H]2[C@H](COC[C@H](O)CN2S(=O)(=O)c2ccccc2)O1)N1CCOCC1`, the cytotoxicity call in the assay with HSkMC and with HepG2 was “inactive” each time. In addition, the growth inhibition call with S. aureus RN4220 was “inactive”.

`COc1ccc(CN(C)C[C@@H]2OCCCC[C@@H](C)Oc3ccc(NS(=O)(=O)c4cccs4)cc3C(=O)N([C@H](C)CO)C[C@H]2C)cc1`: the cytotoxicity call in the assay with HSkMC and in the assay with HepG2 was “inactive” in each case. Further, in the assay on S. aureus RN4220, the growth inhibition call is “inactive”.
